From a collection of fitness landscapes (doi:10.1016/j.celrep.2020.107928)
Over roughly 81,000 sequences, “one-hybrid fitness for binding NBS DNA” has its median near -0.1; the highest 2% begin near 0.36. The list shows a part of the results.

B1: Caulobacter ParB omega fusion; a variant is named by its letters at X, in order, B8GW30 (parent)
chain: MESVVVGEPGMSEGRRGLGRGLSALLGEVDAAPAQAPGEQLGGSREAPIEILQRNPDQPRRTFREEDLEDLSNSIREKGVLQPILVRPSPDTAGEYQIVAGERAWRAAQRAGLKTVPIMVRELDDLAVLEIGIIENVQRADLNVLEEALSYKVLMEKFERTQENIAQTIGKSXSHVANXMRLLXLPDEVQSYLVSGELTAXHARAIAAAADPVALAKQIIEGGLSVRETEALARKAPNLSAGKSKGGRPPRVKDTDTQALESDLSSVLGLDVSIDHRGSTGTLTITYATLEQLDDLCNRLTRGI

Variants of: B1
Test: one-hybrid fitness for binding NBS DNA (the Noc-binding site; scaled: cognate 1, non-cognate 0); higher = stronger binding
Settings: with NBS DNA site
Summary of the method: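 Fitness here means the log change in variant-to-wild-type read ratio between plasmids sequenced before and after selection. That scale was set so cognate equals 1 and non-cognate equals 0. The selection was a bacterial one-hybrid screen of Caulobacter ParB libraries, four specificity codons randomised, in E. coli USO carrying a HIS3 reporter with the site 19 bp from the promoter, grown 48 hours at 37°C on M9-minus-histidine with 0.1 mM IPTG and 5 mM 3-AT.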

one-hybrid fitness for binding NBS DNA, 0.219:
RCAH

one-hybrid fitness for binding NBS DNA, ≤ 0.2:
CERA
QMHN
PPLT
SEDG
LHHA
AANY
EDGR
DYVY
LHGS
SENN
VKPI
QAPW
LCWF
PPQS
SLRL
APSD
PFFV
AART
FLTG
IRNN
TCPM
TILG
KQLT
DIPL
IDWT
RPCW
LRAA
AQLM
WFLS
HHLG
RNMY
PIFS
STPG
KLMW
VLMD
DPKL
LVLT
ACGK
THIS
TNVM
MHHT
LYTI
VWKA
ICQT
EQHC
QNPY
RISV
RAGG
RADM
ILDV
YAAR
PATL
DEKR
NETR
QWLS
LELC
IIHE
YWII
GKDL
TKTW
PKDK
LCPT
ISTK
INYT
VTPP
HEKV
SDIT
MCFR
DPYH
QSPI
DIVS
QHTQ
YNRT
RERA
NDYP
WWPD
MVQT
NYTI
RQRM
WISC
NSML
RITE
WEPW
LPYL
LFMW
RPCL
FRDK
RFIP
MEGG
RQTY
TYPI
KDGW
SYSI
SKCS
VNPF
GAHA
LRLP
NKNG
DQTT
NCPE
GINY
FMSR
VANC
WKHT
MSHS
APGM
CHKD
PEWT
PIVK
AKSV
VRHG
RHDM
RQWK
WAYI
HYDG
GRWE
SPPD
KRHK
HTQC
GYCG
SKKI
NWCR
DTAQ
PNNS
MHSL
QKNK
LSFM
TRIS
RTRE
LWTG
KLPS
THFY
STSV
VDCC
ALQV
PRLY
NGAL
IISC
SFTL
KQWG
AAHM
DCEV
LWSG
YVSQ
NQWP
TIDK
SMRC
WPST

one-hybrid fitness for binding NBS DNA, 0.265:
QCQY

one-hybrid fitness for binding NBS DNA, 0.327:
QSLT

one-hybrid fitness for binding NBS DNA, 0.296:
RREH

one-hybrid fitness for binding NBS DNA, 0.651:
RRRM
